Measurements from the antibiotic and cytotoxicity screens of Wong et al. (2023).
The list shows a part of the results.

test system: S. aureus RN4220; experiment: growth inhibition call (relative growth <= 0.2); settings: 50 µM

Growth inhibition call, inactive:
COc1ccc(NC(=O)N(C)C[C@@H]2OCCCC[C@@H](C)Oc3ccc(NC(=O)CCC(F)(F)F)cc3C(=O)N([C@@H](C)CO)C[C@H]2C)cc1
C[C@@H]1CN([C@H](C)CO)C(=O)c2cccc(NS(=O)(=O)c3cccs3)c2O[C@@H]1CN(C)CC1CC1
C[C@@H]1CCCCO[C@@H](CN(C)S(=O)(=O)c2ccc(Cl)cc2)[C@@H](C)CN([C@@H](C)CO)C(=O)c2cc(NC(=O)Nc3ccc4c(c3)OCO4)ccc2O1
CC(C)NC(=O)Nc1ccc2c(c1)CC(=O)N([C@@H](C)CO)C[C@@H](C)[C@H](CN(C)S(=O)(=O)c1ccc(Cl)cc1)O2
C[C@H]1CN([C@@H](C)CO)C(=O)c2cc(NC(=O)CCN3CCOCC3)ccc2O[C@H]1CN(C)Cc1ccc(C(=O)O)cc1
C[C@@H]1CCCCO[C@H](CN(C)C(=O)Nc2ccc(F)cc2)[C@@H](C)CN([C@@H](C)CO)C(=O)c2cc(NC(=O)Nc3ccc(C(F)(F)F)cc3)ccc2O1
COCCNC(=O)C[C@@H]1C[C@H]2c3cc(NC(=O)COC)ccc3O[C@H]2[C@@H](CO)O1
C[C@@H]1CN([C@H](C)CO)C(=O)c2cc(C#C[C@@H](C)O)cnc2O[C@@H]1CN(C)C(=O)CN1CCOCC1
